Among all 310,000 compounds or so, about 2,200 (0.71%) showed an effect of 50% or more. Effects have a minus sign here. The list shows a part of the results.
What follows are molecules tested against human ether-à-go-go-related gene (hERG) potassium channel (human, UniProt Q12809) (assay: primary screen, population patch clamp on CHO cells stably expressing hERG).
Chain of human ether-à-go-go-related gene (hERG) potassium channel (Q12809 whole entry, looked up): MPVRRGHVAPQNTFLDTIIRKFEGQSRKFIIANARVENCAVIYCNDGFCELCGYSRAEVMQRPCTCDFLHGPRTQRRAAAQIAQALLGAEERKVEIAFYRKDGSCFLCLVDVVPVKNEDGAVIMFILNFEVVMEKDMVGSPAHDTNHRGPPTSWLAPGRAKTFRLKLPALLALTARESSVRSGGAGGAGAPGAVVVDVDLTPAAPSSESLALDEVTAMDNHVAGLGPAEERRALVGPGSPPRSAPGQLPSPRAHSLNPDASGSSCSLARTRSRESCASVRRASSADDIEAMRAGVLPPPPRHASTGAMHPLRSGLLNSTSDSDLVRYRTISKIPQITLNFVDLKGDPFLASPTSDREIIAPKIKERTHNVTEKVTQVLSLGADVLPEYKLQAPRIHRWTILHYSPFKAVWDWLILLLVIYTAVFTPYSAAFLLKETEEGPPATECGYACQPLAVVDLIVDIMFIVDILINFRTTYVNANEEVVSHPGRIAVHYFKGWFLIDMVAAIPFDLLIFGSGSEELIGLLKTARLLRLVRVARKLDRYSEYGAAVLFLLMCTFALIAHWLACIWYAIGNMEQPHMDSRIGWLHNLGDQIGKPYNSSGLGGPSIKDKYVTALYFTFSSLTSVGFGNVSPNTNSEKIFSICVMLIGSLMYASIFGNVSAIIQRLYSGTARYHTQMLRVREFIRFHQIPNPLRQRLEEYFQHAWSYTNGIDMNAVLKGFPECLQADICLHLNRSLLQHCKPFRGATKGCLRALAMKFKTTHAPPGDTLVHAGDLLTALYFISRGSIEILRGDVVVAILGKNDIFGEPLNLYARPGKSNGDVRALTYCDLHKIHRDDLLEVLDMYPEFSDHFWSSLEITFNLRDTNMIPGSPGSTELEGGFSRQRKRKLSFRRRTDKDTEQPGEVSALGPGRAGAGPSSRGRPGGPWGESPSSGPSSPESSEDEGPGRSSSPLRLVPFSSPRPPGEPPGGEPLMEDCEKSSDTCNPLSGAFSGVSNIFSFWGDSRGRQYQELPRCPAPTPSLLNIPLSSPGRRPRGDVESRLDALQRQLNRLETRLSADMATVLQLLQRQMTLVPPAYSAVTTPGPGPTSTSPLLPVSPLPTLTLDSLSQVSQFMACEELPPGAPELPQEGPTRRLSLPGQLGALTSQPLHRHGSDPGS

SMILES	hERG current change (%, negative = inhibition) at 1uM [%]
COc1ccc(/C=C2/C(=O)N=C3SCCN32)cc1	-17.1
Cc1ccc(C2C3=C(CCCC3=O)Nc3nc(SCC(=O)NCc4ccco4)[nH]c(=O)c32)cc1 (stereo not drawn)	-3.42
Cc1ccc(OCC(=O)Nc2cc(C(C)(C)C)on2)cc1C	7.5
CN1CCN(Cc2nc(Cc3cccc(F)c3)no2)CC1c1ccccc1 (stereo not drawn)	1.01
O=C(NNC(=O)C1CC1)c1ccc(-c2ccccc2)cc1	6.86
COc1cccc(N2CCN(C(=O)CCS(=O)(=O)c3ccc4c(c3)oc(=O)n4C)CC2)c1	13.5
Cn1c(=O)c2c(nc(CO)n2C)n(C)c1=O	17.1
OC(CNCC1CCCO1)COc1ccc(OCC(O)CNCC2CCCO2)cc1 (stereo not drawn)	7.73
CC(Oc1ccc(Cl)cc1Cl)C(=O)Nc1ccc(O)cc1 (stereo not drawn)	5.61
CCOC(=O)c1sc2nc(C(C)C)c3c(c2c1N)CC(C)(C)OC3	4.56
COc1ccc(-c2csc(NC(C)c3nc4cc(Cl)c(N5CCCCC5)cc4n3CCOCCO)n2)cc1 (stereo not drawn)	10.6
Cc1cc(Br)ccc1NC(=O)c1sc2ncnc(N3CCN(c4ccccn4)CC3)c2c1C	-1.45
O=c1c2c(ncn1CCO)nc1n2CCC1	13.5
O=C(NNC(=O)C1CCN(S(=O)(=O)c2ccc(Cl)cc2)CC1)c1ccc(S(=O)(=O)N2CCCCC2)cc1	2.65
COc1cccc(OCC(=O)NNC(=O)c2cnccn2)c1	15.2
C=CCc1c(C)nc2cc(-c3ccccc3)[nH]n2c1=O	8.22
c1ccc(-c2noc(CSc3nc4ccccc4o3)n2)cc1	-1.26
c1ccc2c(-n3cccn3)cccc2c1	5.7
CCOC(=O)N1CCN(C(=O)C2CCC(=O)N(Cc3cccc(C(F)(F)F)c3)C2)CC1 (stereo not drawn)	9.92
CCOC(=O)Cn1c(Br)nc2c1c(=O)[nH]c(=O)n2C	-15.5
Cc1ccc(-c2cc(C(=O)N3CCN(c4ccccc4O)CC3)c3ccccc3n2)cc1	14.6
COc1ccc(C2c3c(ncn(CCN4CCOCC4)c3=N)Oc3ccc4ccccc4c32)cc1 (stereo not drawn)	-3.2

SMILES	hERG current change (%, negative = inhibition) at 1uM [%]
COc1ccc(C2C(C#N)=C(N)N(c3sc4c(c3C#N)CCCC4)C3=C2C(=O)CC(C)(C)C3)cc1OC (stereo not drawn)	12.7
CCOCCCNC(=O)C(NC(=O)C1CCC(=O)N1)c1ccc(C)cc1 (stereo not drawn)	6.89
O=C(CCN1C(=O)C2C3CCC(C3)C2C1=O)Nc1ccccc1Cl (stereo not drawn)	9.42
COc1cc(/C=C(\NC(=O)c2ccccc2)C(=O)N2CC3CC(C2)c2cccc(=O)n2C3)cc(OC)c1OC (stereo not drawn)	14.1
CN(C)c1ccc(N=Nc2ccccc2C(=O)OCC(=O)N2CCCCCC2)cc1	7.35
O=C(Nc1ccc(Br)cn1)C1CCCN1S(=O)(=O)c1ccccc1 (stereo not drawn)	-1.37
O=C(NC(NC(=S)Nc1ccccc1C(=O)O)C(Cl)(Cl)Cl)c1ccccc1 (stereo not drawn)	4.84
CCOC(=O)c1c(NC(=O)CN2C(=O)NC3(CCC(C)CC3)C2=O)sc(C)c1CC (stereo not drawn)	6.67
CC(=O)c1cccc(NC(=O)CSC(=O)c2ccccc2)c1	9.57
Cc1ccc(N2CC(C(=O)N/N=C/c3c(F)cccc3Cl)CC2=O)cc1 (stereo not drawn)	0.61
CN(C/C=C/c1ccccc1)Cc1cccc2ccccc12.Cl	5.76
O=C(NCc1nnc2c3ccccc3c(-c3ccccc3)nn12)c1ccc(Cl)cc1	0.471
COc1ccc(-n2c(SCC(=O)O)nc3sc4c(c3c2=O)CCCC4)cc1	12.7
O=S(=O)(NCCC1=CCCCC1)c1c(Cl)cccc1Cl	13.6
Fc1ccccc1N1CCN(C2CCCN(Cc3ccccc3C(F)(F)F)C2)CC1 (stereo not drawn)	16.7
Cc1cc(NC(=O)Nc2cccc3ccccc23)no1	14.1
CC(=O)Nc1ccc(S(=O)(=O)NC(CC(=O)N2CCC3(CC2)OCCO3)C(C)C)cc1 (stereo not drawn)	14.7
Cc1nn(CC(=O)Nc2ccc3c(c2)nc(CN2CCCC2)n3C)c(=O)c2ccccc12	10.2
COc1ccc(CCNC(=O)CSC2=NS(=O)(=O)c3ccccc3N2)cc1OC	3.89
CC(=O)Nc1ccccc1C(=O)C(=O)Nc1ccc(F)cc1	1.95
O=C(Nn1cnnc1)c1cc2cc(Br)ccc2oc1=O	1.13
CCOC(=O)C1=C(c2cccc(Oc3ccccc3)c2)NC(=S)NC1C (stereo not drawn)	4.25

SMILES	hERG current change (%, negative = inhibition) at 1uM [%]
O=C(NCc1ccco1)c1csc(Nc2ccccc2Cl)n1	0.399
O=C(Oc1cccc2ccccc12)c1ccncc1	12.5
Cc1ccc(C(=O)C2CCN(S(=O)(=O)c3ccc(C(=O)O)cc3)CC2)cc1	10.7
COc1c(C(C)C)oc2cc3oc(=O)ccc3cc12	10.9
CN(CC1CCCN(CCc2cccc(C(F)(F)F)c2)C1)C(=O)c1ccc2nc[nH]c2c1 (stereo not drawn)	5.78
CCOc1ccc(C(=O)N(Cc2ccccc2)c2cccc(C)c2)cc1OC	9.72
O=S(=O)(c1ccc(F)cc1)N1CC2CCCN2c2ccc(C(F)(F)F)cc21 (stereo not drawn)	12.6
CCOC(=O)CCn1c(CC(=O)OCC)nc2ccccc21.Cl.O	-7.12
CC(=O)c1cccc(S(=O)(=O)N2CCC(C(=O)O)CC2)c1	17.5
CCCc1cc(C(=O)Cc2ccc(F)cc2)c(O)cc1O	7.88
Cc1ccc(NC(=O)c2c3c(nc4ccccc24)CCC3)cc1S(=O)(=O)N(C)C	15.6
CCN(CC)c1ccc(C(=O)Nn2c(C)nc3ccccc3c2=O)cc1	11.5
CCC(=O)c1c[nH]c(C(=O)NCc2cccc(C(F)(F)F)c2)c1	8.4
Cc1ccc(F)cc1NC(=O)CN1C(=O)NC(C)(c2ccc3c(c2)OCCO3)C1=O (stereo not drawn)	2.55
Cc1cccc(C)c1NC(=O)CN(C)C(=O)c1ccccc1Sc1ccccc1C#N	23.3
O=C(Nc1ccccc1)N1CCN(c2cccc(C(F)(F)F)c2)CC1	17.5
O=C(Nc1ccc(C(F)(F)F)cc1)c1ccc2ncsc2c1	13.1
Cn1cccc1/C=N/NC(=O)C12CC3CC(CC(C3)C1)C2	8.06
O=C(OCCc1cc2ccccc2c(=O)o1)c1ccc(C(F)(F)F)cc1	16.3
Cc1ccc2c(c1)CCCN2S(=O)(=O)c1cccc(C(=O)Nc2ccccc2C(=O)O)c1	0.441
O=C(NCc1ccc(F)cc1)C1CCN(c2cnccn2)CC1	-33.6
O=C(Nc1c(Cl)ccc2nsnc12)c1cccnc1	12.2

SMILES	hERG current change (%, negative = inhibition) at 1uM [%]
CCCNC(=O)Cc1c(O)c2ccccc2[nH]c1=O	16.8
CCOC(=O)N1CCc2c(sc(NC(=O)C3=COCCO3)c2C(N)=O)C1	8.89
CN(CCN1CCOCC1)Cc1nc(-c2cccs2)no1	12.8
COc1cc2c(cc1OC)CC[N+](C)=C2.[I-]	13.5
O=C(NCc1ccc2c(c1)OCO2)c1ccc(CS(=O)Cc2ccc(Cl)cc2)o1 (stereo not drawn)	3.03
Cc1ccc2nc(NC(=S)NC(=O)c3cccs3)sc2c1	10.1
O=C(CSc1nc2ccccc2s1)N1N=C(c2cccs2)CC1c1ccc(F)cc1 (stereo not drawn)	4.73
O=c1[nH][nH]c(C(F)(F)F)c1C=NCc1cccs1	5.98
CCc1ccc(OCc2cnc(Cl)s2)cc1	9.33
CCCCn1c(SCC(=O)Nc2ccc(C)c(S(=O)(=O)N3CCOCC3)c2)nnc1C(CC)N(C)C (stereo not drawn)	-6.49
CN(C)c1ccc(P(=O)(OC2CCCCC2)C(O)c2cccnc2)cc1 (stereo not drawn)	-8.69
O=[N+]([O-])c1cc(S(=O)(=O)N2CCCC2)ccc1OCc1ccccc1	12.9
CC(=O)Nc1ccc(NC(=O)CSc2nc3c([nH]c4ccccc43)c(=O)n2-c2ccccc2F)cc1	22.6
CCn1c(SCCOc2ccc(OC)cc2)nnc1C(CO)NC(=O)c1ccc(OC)cc1 (stereo not drawn)	-2.03
CCOc1ccc(-c2nnc(N3CCOCC3)c3ccccc23)cc1	3.43
Cc1ccc(-c2nc(NC(=O)c3nn(C)cc3[N+](=O)[O-])sc2C)cc1C	-0.746
CCOc1ccccc1NC(=O)N1CCCN(c2ncccc2C#N)CC1	12.8
Nc1nc(N)c(Cc2ccc(Cl)cc2Cl)c(N)n1	19.5
CC(=O)Nc1ccc(S(=O)(=O)Nc2nnc(Cc3ccc(Cl)cc3)s2)cc1	14.9
O=C(O)c1cccc(NC(=S)NC(=O)c2ccncc2)c1	8.94
Cc1nn(C)c(C)c1CCC(=O)N1CCCC(N2CCN(c3ccc(F)cc3)CC2)C1 (stereo not drawn)	0.801
